Relative growth data for 57 molecules are collected here from the supplement of paper PMC9446081.

Each structure is given as a SMILES string. Among all 39,000 compounds or so, about 220 (0.56%) showed activity. Some of the results follow.
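Note: static incubation at 37 °C against the wild-type strain, values averaged over two biological replicates.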

The assay has as its system Escherichia coli K-12 BW25113. As to the kind of experiment: relative growth (OD600 normalised to plate interquartile mean) (fraction); higher = less growth inhibition, active = 0.2 or less. The settings on record: 50 µM; LB; incubation time: overnight (16-24 h).
For the molecule `COCCN1C[C@H]2[C@@H](OC)CCN(S(=O)(=O)c3cn(C)cn3)[C@H]2C1`, the relative growth was inactive: 1.03. With `C[C@H](CO)N1C[C@H](C)[C@@H](CN(C)CC2CCCCC2)Oc2ccc(NC(=O)CCN3CCOCC3)cc2C1=O` the figure was inactive: 0.981; with `CN(C)C(=O)CN1CCC[C@]2(CCN(S(=O)(=O)c3cn(C)cn3)C2)C1`, inactive: 1.01. In the case of `C[C@H](CO)N1C[C@H](C)[C@H](CN(C)S(=O)(=O)c2cccs2)Oc2c(NS(=O)(=O)c3ccc(F)cc3)cccc2C1=O` it was inactive: 1.04. Take `C[C@@H]1CN([C@@H](C)CO)C(=O)c2cc(NS(=O)(=O)c3cn(C)cn3)ccc2O[C@@H]1CN(C)S(C)(=O)=O`: the relative growth was inactive: 0.991.

As to `COc1ccc(CN(C)C[C@@H]2Oc3ccc(NC(=O)Nc4ccc(C(F)(F)F)cc4)cc3C(=O)N([C@@H](C)CO)C[C@@H]2C)cc1`, the relative growth was inactive: 0.998. With `Cc1ccc(S(=O)(=O)Nc2cccc3c2O[C@@H](CN(C)S(=O)(=O)c2ccc(F)cc2)[C@@H](C)CN([C@@H](C)CO)C3=O)cc1` the figure was inactive: 1; with `C[C@@H]1CN([C@@H](C)CO)C(=O)Cc2cc(NC(=O)c3ccncc3)ccc2O[C@@H]1CN(C)Cc1ccncc1`, inactive: 0.996; with `COc1cccc(-c2ccc3c(c2)O[C@@H](CN(C)C(=O)C2CCC2)[C@H](C)CN([C@H](C)CO)S3(=O)=O)c1`, inactive: 0.999. In the case of `CC(=O)N1CCc2n[nH]c(C(=O)N3CCOCC3)c2C1` it was inactive: 0.997. With `C[C@@H]1CN([C@H](C)CO)C(=O)c2cc(NC(=O)CCCN(C)C)ccc2O[C@@H](C)CCCCO[C@@H]1CN(C)S(=O)(=O)c1cn(C)cn1` the figure was inactive: 0.975. Regarding `C[C@@H]1CN([C@@H](C)CO)S(=O)(=O)c2ccc(Br)cc2O[C@@H]1CN(C)C(=O)C1CCCCC1`, the relative growth is inactive: 1. With `Cc1ccc(S(=O)(=O)Nc2ccc3c(c2)C(=O)N([C@H](C)CO)C[C@H](C)[C@H](CN(C)S(=O)(=O)c2cn(C)cn2)O3)cc1` the figure was inactive: 1.01; with `CCCCC(CC)COC(=O)CC(C(=O)OCC(CC)CCCC)S(=O)(=O)[O-].[Na+]` (configuration not stated), inactive: 1.02; with `C[C@@H]1CN([C@H](C)CO)C(=O)c2cccc(NC(=O)c3ccc(-c4nccs4)cc3)c2O[C@@H]1CN(C)S(C)(=O)=O`, inactive: 1.01.

For the molecule `COC[C@H]1CCCNC1`, the relative growth was inactive: 0.976.

As to `C/C=C/c1ccc2c(c1)O[C@H](CN(C)C(=O)c1ccc3c(c1)OCO3)[C@@H](C)CN([C@H](C)CO)S2(=O)=O`, the relative growth is inactive: 1.04.

With `Cc1noc(C)c1NC(=O)N(C)C[C@@H]1OCCCC[C@@H](C)Oc2ccc(NC(=O)C3CCCCC3)cc2C(=O)N([C@@H](C)CO)C[C@H]1C`, the relative growth is inactive: 0.993. With `C[C@H](CO)N1C[C@H](C)[C@H](CN(C)Cc2cccc(C(F)(F)F)c2)Oc2ncc(/C=C/c3ccccc3)cc2C1=O` the figure was inactive: 1.04; with `C[C@H](CO)N1C[C@H](C)[C@H](CN(C)Cc2ccccc2)Oc2ccc(NC(=O)CCCCCC(=O)Nc3ccccc3N)cc2CC1=O`, inactive: 0.956; with `C[C@@H]1CN([C@H](C)CO)C(=O)Cc2cc(NC(=O)CCC(F)(F)F)ccc2O[C@H]1CN(C)Cc1ccc(Cl)c(Cl)c1`, inactive: 0.99. Regarding `OCCN1CCN(c2ncnc3c2ncn3[C@H]2CN(Cc3cccnc3)C[C@@H](CO)O2)CC1`, the relative growth is inactive: 0.99. For `C[C@@H]1CN([C@H](C)CO)C(=O)Cc2cc(NC(=O)Cn3cnnn3)ccc2O[C@@H]1CN(C)S(=O)(=O)c1cn(C)cn1`, the relative growth is inactive: 0.993.

Take `C[C@H]1CN([C@@H](C)CO)C(=O)c2cccc(NC(=O)c3ccc(-c4nccs4)cc3)c2O[C@@H]1CN(C)Cc1ccc2c(c1)OCO2`: the relative growth is inactive: 1.03.

As for `Cc1ccc(S(=O)(=O)Nc2ccc3c(c2)C(=O)N([C@H](C)CO)C[C@H](C)[C@H](CN(C)Cc2ccc(C(F)(F)F)cc2)OCCCC[C@@H](C)O3)cc1`, the relative growth was inactive: 1.06. With `N#C[C@@H]1C[C@@H]2C[C@@H]2N1C(=O)[C@@H](N)[C@@]12C[C@@H]3C[C@@H](C[C@@](O)(C3)C1)C2` the figure was inactive: 0.943; with `C[C@@H]1CCCCO[C@H](CN(C)S(=O)(=O)c2cn(C)cn2)[C@@H](C)CN([C@H](C)CO)C(=O)c2cc(N(C)C)ccc2O1`, inactive: 0.992. For the molecule `Cc1noc(C)c1NC(=O)Nc1ccc2c(c1)C(=O)N([C@@H](C)CO)C[C@@H](C)[C@@H](CN(C)CC1CC1)OCCCC[C@@H](C)O2`, the relative growth is inactive: 0.983. With `Nc1nc(=O)c2c([nH]1)CN(C(=O)[C@H]1CCOC1)CC2` the figure was inactive: 0.99; with `COCC(=O)Nc1ccc2c(c1)C(=O)N(C)C[C@@H](OC)[C@@H](C)CN(Cc1ccccc1OC)[C@@H](C)CO2`, inactive: 1; with `C[C@@H]1CCCCO[C@@H](CN(C)CC2CCCCC2)[C@@H](C)CN([C@H](C)CO)C(=O)c2cc(NC(=O)Cc3ccccc3)ccc2O1`, inactive: 1.01.

For `C[C@H]1CN([C@@H](C)CO)C(=O)Cc2cc(NC(=O)Nc3ccccc3)ccc2O[C@H]1CN(C)Cc1ccc(C(F)(F)F)cc1`, the relative growth was inactive: 0.978.

Consider `O=C(C[C@@H]1CC[C@@H](NC(=O)CN2CCOCC2)[C@@H](CO)O1)NCCc1ccccc1`, for which the relative growth was inactive: 0.966. Take `CC(O)(CN)CCc1ccccc1` (configuration not stated): the relative growth was inactive: 1.06. In the case of `C[C@H](CO)N1C[C@H](C)[C@@H](CN(C)CC2CC2)Oc2ccc(NS(=O)(=O)c3cccs3)cc2C1=O` it was inactive: 0.984. With `CN1C(=O)c2cc(NS(=O)(=O)c3ccc(F)cc3)ccc2OC[C@@H]2O[C@H](CC(=O)NCC(F)(F)F)CC[C@H]21` the figure was inactive: 0.998.

Take `C[C@@H]1CN([C@@H](C)CO)C(=O)c2cc(NS(=O)(=O)c3ccc(F)cc3)ccc2O[C@H]1CN(C)S(=O)(=O)c1ccccc1`: the relative growth is inactive: 0.996. In the case of `CN(C)C(=O)c1ccc(-c2cccc(-c3nc(C(=O)NCc4ccccc4)cc4c3[C@@H](CCO)N([S@](=O)C(C)(C)C)C4)c2)cc1` it was inactive: 1; in that of `CC(C)NC(=O)Nc1ccc2c(c1)C(=O)N([C@@H](C)CO)C[C@@H](C)[C@H](CN(C)C(=O)Nc1ccc(F)cc1)OCCCC[C@H](C)O2`, inactive: 0.87; in that of `Cc1ccc(S(=O)(=O)N(C)C[C@H]2Oc3ccc(NC(=O)Nc4cccc5ccccc45)cc3C(=O)N([C@H](C)CO)C[C@H]2C)cc1`, inactive: 0.99. In the case of `CC(C)NC(=O)Nc1ccc2c(c1)CC(=O)N([C@H](C)CO)C[C@@H](C)[C@H](CN(C)S(=O)(=O)c1ccccc1)O2` it was inactive: 0.95; in that of `C[C@@H]1CN([C@H](C)CO)C(=O)c2cccc(NS(=O)(=O)c3ccc(Cl)cc3)c2O[C@H]1CN(C)Cc1ccc(Cl)c(Cl)c1`, inactive: 1.03. With `COc1ccc(CN(C)C[C@H]2OCCCC[C@H](C)Oc3ccc(NC(=O)Nc4ccccc4)cc3C(=O)N([C@H](C)CO)C[C@@H]2C)cc1` the figure was inactive: 0.995; with `C#Cc1ccc([C@H]2C=C(C(=O)N3CCN(Cc4ccc5c(c4)OCO5)CC3)O[C@@H](OCC)[C@@H]2CCCO)cc1`, inactive: 1.02. Take `C[N+](C)(C)CCCCCCNC(=O)[C@H]1C[C@H]2C(=O)N3CCC[C@H]3C(=O)N2[C@H]1c1cccc(OCCO)c1`: the relative growth is inactive: 0.996. In the case of `CCCNC(=O)N(C)C[C@H]1Oc2cc(C#Cc3cccc(F)c3)ccc2S(=O)(=O)N([C@@H](C)CO)C[C@@H]1C` it was inactive: 0.997; in that of `Cc1noc(C)c1S(=O)(=O)Nc1ccc2c(c1)CC(=O)N([C@@H](C)CO)C[C@@H](C)[C@@H](CN(C)Cc1ccccc1)O2`, inactive: 0.997.

`CC(=O)O[C@@H]1[C@H](OC(C)=O)N(C(C)=O)C(=O)N1C(C)=O`: the relative growth was inactive: 0.852. With `CC(C)C[C@H](NC(=O)[C@@H](COC(C)(C)C)NC(=O)[C@H](Cc1ccc(O)cc1)NC(=O)[C@H](CO)NC(=O)[C@H](Cc1c[nH]c2ccccc12)NC(=O)[C@H](Cc1cnc[nH]1)NC(=O)[C@@H]1CCC(=O)N1)C(=O)N[C@@H](CCCNC(=N)N)C(=O)N1CCC[C@H]1C(=O)NNC(N)=O` the figure was inactive: 1.01.

For `COc1ccc2c3c(n(c2c1)C)[C@H](CO)N(CC1CCOCC1)C[C@]13CCN(CC1)C(=O)Cc1cccnc1`, the relative growth was inactive: 1.01. In the case of `COc1ccc(-c2cc(=O)c3c(O)c(OC)c(OC)c(OC)c3o2)cc1`, the relative growth is inactive: 0.943. Turning to `C[C@@H]1CN([C@H](C)CO)S(=O)(=O)c2ccc(C3=CCCC3)cc2O[C@H]1CN(C)S(=O)(=O)c1cn(C)cn1`, the relative growth was inactive: 1.01.

Consider `CC1(C)CC[C@]2(C(=O)O[C@@H]3O[C@H](CO)[C@@H](O)[C@H](O)[C@H]3O)CC[C@]3(C)C(=CC[C@H]4[C@@]5(C)CC[C@@H](O[C@@H]6O[C@H](C(=O)O)[C@@H](O[C@@H]7OC[C@@H](O)[C@H](O)[C@H]7O)[C@H](O[C@@H]7OC[C@](O)(CO)[C@H]7O)[C@H]6O)C(C)(C)[C@@H]5CC[C@]43C)[C@@H]2C1`, for which the relative growth is inactive: 1.02. With `C[C@@H]1CN([C@@H](C)CO)C(=O)Cc2cc(NS(=O)(=O)c3cn(C)cn3)ccc2O[C@H]1CN(C)C(=O)Nc1ccccc1` the figure was inactive: 0.986. `C[C@@H]1CCCCO[C@@H](CN(C)C(=O)Nc2cccc3ccccc23)[C@@H](C)CN([C@H](C)CO)C(=O)c2cc(NC(=O)NC3CCCCC3)ccc2O1`: the relative growth was inactive: 1.03. With `CCCC#Cc1ccc2c(c1)O[C@@H](CN(C)Cc1ccc3c(c1)OCO3)[C@@H](C)CN([C@H](C)CO)S2(=O)=O`, the relative growth was inactive: 1.03. In the case of `O=c1ccoc2cc(O)c([C@H]3O[C@H](CO)[C@@H](O)[C@H](O)[C@@H]3O)c(O)c12` it was inactive: 1.03.
